Source: the supplement of paper PMC9151546
Many values rest on one well or one pass, so single values are uncertain.

How the values were obtained:
CHO-K1 [1] = test: micronucleus frequency (% of nucleated events); higher = more micronuclei (genotoxic)
CHO-K1 [2] = test: hypodiploid nuclei frequency (% of nucleated events); higher = more hypodiploid events (aneugenic)
Experimental: (§1)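 Flow-cytometric in vitro micronucleus assay (Litron MicroFlow) in CHO-K1 cells in 96-well plates, 19 concentrations (4.5-200 µM, n=1 per concentration). Without S9, cells were exposed for 24 h and sampled at 48 h. With Aroclor 1254-induced rat liver S9, cells were exposed for 3-4 h and sampled at 27-28 h. Read-outs are %MN and %hypodiploid nuclei relative to nucleated events, and relative survival as the nuclei-to-bead ratio versus the 1% DMSO vehicle control (x100).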

CHO-K1 [3] = test: relative survival (nuclei to bead ratio vs DMSO control) (% of vehicle control); higher = more surviving cells
Experimental: as §1
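Throughout, for hypodiploid nuclei frequency (% of nucleated events): hypodiploid nuclei gated on a flow cytometer with 488 nm excitation after SYTOX Green staining, cultures at 37 °C, positive controls vinblastine without S9 and cyclophosphamide with S9.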
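Throughout, for micronucleus frequency (% of nucleated events): cells lysed with nuclei stained by SYTOX Green, then micronucleus-gated events counted against nucleated events by flow cytometry with 488 nm excitation.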
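Throughout, for relative survival (nuclei to bead ratio vs DMSO control): Lysed-cell nuclei stained with SYTOX Green and counted against counting beads by flow cytometry at 488 nm excitation, with vinblastine (no S9) and cyclophosphamide (plus S9) as positive controls.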

O=S1(=O)CCCO1 [1,3-Propane sultone]
Conditions	hypodiploid nuclei frequency, CHO-K1 [2] [%]	micronucleus frequency, CHO-K1 [1] [%]	relative survival, CHO-K1 [3]
concentration: 4.48 (µM), S9 metabolic activation: with S9, exposure time: 3-4 hours	0.48	1.92	62.1
concentration: 4.48 (µM), S9 metabolic activation: without S9, exposure time: 24 hours	1.24	1.98	74.9
concentration: 5.6 (µM), S9 metabolic activation: with S9, exposure time: 3-4 hours	0.32	1.5	55.4
concentration: 5.6 (µM), S9 metabolic activation: without S9, exposure time: 24 hours	0.94	1.76	69.2
concentration: 7 (µM), S9 metabolic activation: with S9, exposure time: 3-4 hours	0.36	2.32	54.2
concentration: 7 (µM), S9 metabolic activation: without S9, exposure time: 24 hours	0.74	1.78	81.8
concentration: 8.75 (µM), S9 metabolic activation: with S9, exposure time: 3-4 hours	0.42	1.98	62.7
concentration: 8.75 (µM), S9 metabolic activation: without S9, exposure time: 24 hours	0.98	1.54	80.2
concentration: 10.9 (µM), S9 metabolic activation: with S9, exposure time: 3-4 hours	0.4	1.48	68.3
concentration: 10.9 (µM), S9 metabolic activation: without S9, exposure time: 24 hours	0.88	1.74	77.7
concentration: 13.7 (µM), S9 metabolic activation: with S9, exposure time: 3-4 hours	0.62	2.08	64.9
concentration: 13.7 (µM), S9 metabolic activation: without S9, exposure time: 24 hours	1.04	2.06	112
concentration: 17.1 (µM), S9 metabolic activation: with S9, exposure time: 3-4 hours	0.44	1.82	68.9
concentration: 17.1 (µM), S9 metabolic activation: without S9, exposure time: 24 hours	1.26	1.84	102
concentration: 21.4 (µM), S9 metabolic activation: with S9, exposure time: 3-4 hours	0.5	1.78	64.4
concentration: 21.4 (µM), S9 metabolic activation: without S9, exposure time: 24 hours	1.08	1.8	97.5
concentration: 26.7 (µM), S9 metabolic activation: with S9, exposure time: 3-4 hours	0.26	2.6	73.8
concentration: 26.7 (µM), S9 metabolic activation: without S9, exposure time: 24 hours	1.64	1.56	83.8
concentration: 33.4 (µM), S9 metabolic activation: with S9, exposure time: 3-4 hours	0.54	2.04	84.7
concentration: 33.4 (µM), S9 metabolic activation: without S9, exposure time: 24 hours	1.26	2.48	96.1
concentration: 41.7 (µM), S9 metabolic activation: with S9, exposure time: 3-4 hours	0.46	1.9	80.8
concentration: 41.7 (µM), S9 metabolic activation: without S9, exposure time: 24 hours	1.46	2.16	95.2
concentration: 52.2 (µM), S9 metabolic activation: with S9, exposure time: 3-4 hours	0.53	2.37	69.2
concentration: 52.2 (µM), S9 metabolic activation: without S9, exposure time: 24 hours	1.08	1.72	87.8
concentration: 65.2 (µM), S9 metabolic activation: with S9, exposure time: 3-4 hours	0.66	2.04	65.5
concentration: 65.2 (µM), S9 metabolic activation: without S9, exposure time: 24 hours	1.5	2.44	90.2
concentration: 81.5 (µM), S9 metabolic activation: with S9, exposure time: 3-4 hours	0.46	1.6	75.7
concentration: 81.5 (µM), S9 metabolic activation: without S9, exposure time: 24 hours	1.48	2	97.1
concentration: 102 (µM), S9 metabolic activation: with S9, exposure time: 3-4 hours	0.44	1.7	84.5
concentration: 102 (µM), S9 metabolic activation: without S9, exposure time: 24 hours	1.54	1.96	105
concentration: 127 (µM), S9 metabolic activation: with S9, exposure time: 3-4 hours	0.54	1.64	71.1
concentration: 127 (µM), S9 metabolic activation: without S9, exposure time: 24 hours	1.44	2	100
concentration: 159 (µM), S9 metabolic activation: with S9, exposure time: 3-4 hours	0.34	1.68	81.9
concentration: 159 (µM), S9 metabolic activation: without S9, exposure time: 24 hours	2.28	2.98	123
concentration: 199 (µM), S9 metabolic activation: with S9, exposure time: 3-4 hours	0.56	1.84	78.4
concentration: 199 (µM), S9 metabolic activation: without S9, exposure time: 24 hours	2.42	3.12	98.5

Cc1ccc(C)c(O)c1 [2,5-Dimethylphenol]
Conditions	hypodiploid nuclei frequency, CHO-K1 [2] [%]	micronucleus frequency, CHO-K1 [1] [%]	relative survival, CHO-K1 [3]
concentration: 4.53 (µM), S9 metabolic activation: with S9, exposure time: 3-4 hours	0.14	1.32	168
concentration: 4.53 (µM), S9 metabolic activation: without S9, exposure time: 24 hours	0.52	2.12	132
concentration: 5.66 (µM), S9 metabolic activation: with S9, exposure time: 3-4 hours	0.32	1.46	179
concentration: 5.66 (µM), S9 metabolic activation: without S9, exposure time: 24 hours	0.46	1.84	119
concentration: 7.07 (µM), S9 metabolic activation: with S9, exposure time: 3-4 hours	0.28	1.18	131
concentration: 7.07 (µM), S9 metabolic activation: without S9, exposure time: 24 hours	0.52	1.28	127
concentration: 8.84 (µM), S9 metabolic activation: with S9, exposure time: 3-4 hours	0.28	1.56	113
concentration: 8.84 (µM), S9 metabolic activation: without S9, exposure time: 24 hours	0.34	1	117
concentration: 11.1 (µM), S9 metabolic activation: with S9, exposure time: 3-4 hours	0.34	1.7	150
concentration: 11.1 (µM), S9 metabolic activation: without S9, exposure time: 24 hours	0.72	1.04	115
concentration: 13.8 (µM), S9 metabolic activation: with S9, exposure time: 3-4 hours	0.42	1.34	148
concentration: 13.8 (µM), S9 metabolic activation: without S9, exposure time: 24 hours	0.84	1.54	117
concentration: 17.3 (µM), S9 metabolic activation: with S9, exposure time: 3-4 hours	0.28	1.36	154
concentration: 17.3 (µM), S9 metabolic activation: without S9, exposure time: 24 hours	0.38	1.7	127
concentration: 21.6 (µM), S9 metabolic activation: with S9, exposure time: 3-4 hours	0.18	1.3	114
concentration: 21.6 (µM), S9 metabolic activation: without S9, exposure time: 24 hours	0.62	0.78	117
concentration: 27 (µM), S9 metabolic activation: with S9, exposure time: 3-4 hours	0.28	1.78	138
concentration: 27 (µM), S9 metabolic activation: without S9, exposure time: 24 hours	0.7	1.36	123
concentration: 33.7 (µM), S9 metabolic activation: with S9, exposure time: 3-4 hours	0.4	1.64	137
concentration: 33.7 (µM), S9 metabolic activation: without S9, exposure time: 24 hours	0.68	1.8	153
concentration: 42.2 (µM), S9 metabolic activation: with S9, exposure time: 3-4 hours	0.12	1.34	142
concentration: 42.2 (µM), S9 metabolic activation: without S9, exposure time: 24 hours	0.82	2.12	123
concentration: 52.7 (µM), S9 metabolic activation: with S9, exposure time: 3-4 hours	0.22	2.12	132
concentration: 52.7 (µM), S9 metabolic activation: without S9, exposure time: 24 hours	0.7	2.22	128
concentration: 65.9 (µM), S9 metabolic activation: with S9, exposure time: 3-4 hours	0.38	1.82	125
concentration: 65.9 (µM), S9 metabolic activation: without S9, exposure time: 24 hours	1.06	3.1	126
concentration: 82.3 (µM), S9 metabolic activation: with S9, exposure time: 3-4 hours	0.22	1.48	102
concentration: 82.3 (µM), S9 metabolic activation: without S9, exposure time: 24 hours	0.72	2.8	112
concentration: 103 (µM), S9 metabolic activation: with S9, exposure time: 3-4 hours	0.44	1.68	138
concentration: 103 (µM), S9 metabolic activation: without S9, exposure time: 24 hours	1.26	3.02	119
concentration: 129 (µM), S9 metabolic activation: with S9, exposure time: 3-4 hours	0.16	1.46	119
concentration: 129 (µM), S9 metabolic activation: without S9, exposure time: 24 hours	1.26	3.46	95
concentration: 161 (µM), S9 metabolic activation: with S9, exposure time: 3-4 hours	0.16	2.08	132
concentration: 161 (µM), S9 metabolic activation: without S9, exposure time: 24 hours	0.98	2.18	104
concentration: 201 (µM), S9 metabolic activation: with S9, exposure time: 3-4 hours	0.34	1.9	114
concentration: 201 (µM), S9 metabolic activation: without S9, exposure time: 24 hours	1.28	3.28	90.4
